# Experimental data taken from PubChem BioAssay AID686978 (National Center for Advancing Translational Sciences (NCATS), 2013).
# In all, about 420,000 compounds went through this assay and about 64,000 (15%) were called active. The inconclusive results got no clear call from the source; some entries with a clear call stand among them for comparison. Calls follow the shape of the dose curve; as a rule, active = well fitted inhibition curve with a large enough effect; inconclusive = small, poorly fitted or top-dose-only effect; inactive = flat fitted curve, though single readings scatter. Potencies of inconclusive entries are left out as doubtful fits.
# Test: qHTS for Inhibitors of human tyrosyl-DNA phosphodiesterase 1 (TDP1): qHTS in cells in absence of CPT; also: nearly all actives have a fitted effect of over 55% in size
# Settings: DT40 Tdp1-/- hTDP1 cells, no CPT, ATP luminescence, 48 h; activity change, negative = growth inhibition: at 46.2 µM (top of the series) unless noted
# Summary of the method: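 DT40 Tdp1-/-;hTDP1 cells, no CPT (DMSO vehicle only), 400 cells/well; compounds pin-transferred; ≥48 hr, 37 °C; CellTiter-Glo 30 min RT dark, luminescence read.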
# % is scaled to controls: 0 for no effect and ±100 for the full control effect; potency is read from the fitted curve at half-maximal effect; tags tell the direction and shape of the fitted curve.
SMILES,Potency,"activity change, negative = growth inhibition"
Cc1nc(CN2C(=O)C3(CCC3)ON=C2c2cccc(Cl)c2)cs1,"inconclusive [inhibitor, single point]",–
O=c1[nH][nH]c2c1C(c1ccc(F)cc1)OC(CCc1ccccc1)C2 (stereo not drawn),–,inconclusive: -34.8% [inhibitor]
CC(C(=O)NCC1CCCCC1)N1CCc2ccccc2C1 (stereo not drawn),"inconclusive [inhibitor, single point]",–
O=C(NCc1ccco1)C12CN(Cc3ccccc3)CC1C(c1ccc([N+](=O)[O-])cc1)=NO2 (stereo not drawn),"inconclusive [inhibitor, single point]",–
Cc1ccc(S(=O)(=O)c2nc(-c3ccccc3Cl)oc2N2CCCCCC2)cc1,active: 18.4 µM,–
C=CCOc1ccc2ccccc2c1CNCCCN1CCOCC1,"inconclusive [inhibitor, single point]",–
Cc1cc(C)c(NC(=O)CSc2nc(COc3ccccc3)nc3ccccc23)c(C)c1,active: 18.4 µM,–
CCc1ccc(NC(=O)C(=O)NCC(c2ccc3c(c2)OCO3)N2CCOCC2)cc1 (stereo not drawn),–,inactive: -9.11%
CCn1c(=O)n(CC)c2cc(S(=O)(=O)N3CCC(c4ccccc4)CC3)ccc21,"inconclusive [inhibitor, single point]",–
N#C/C(=C\c1ccc(F)c(Br)c1)C(=O)NC1CC1,–,inconclusive: -30.7% [inhibitor]
CCOC(=O)c1cc(-c2ccc3c(c2)OCCO3)n[nH]1,–,inactive: -13.4%
COc1ccc(C2=NN(C(=O)c3cccs3)C(c3ccccc3O)C2)cc1 (stereo not drawn),"inconclusive [inhibitor, single point]",–
COc1ccc(-c2cc(C(=O)Nc3ccn(Cc4ccc(C)cc4)n3)no2)cc1OC,–,inactive: -19.1%
Cc1cc(C(=O)NCCc2ccc(S(=O)(=O)NC(=O)NN3CCCCCC3)cc2)no1,"inconclusive [inhibitor, single point]",–
COc1ccc(OC)c(CCNC(=O)c2ccc(NC3=NC4CS(=O)(=O)CC4S3)cc2)c1 (stereo not drawn),–,inactive: 2.29%
Cc1cc2ccccn2c1C(=O)c1ccc(S(=O)(=O)N(C)C)cc1,active: 23.1 µM,–
Cc1ccc(-c2nnc(N3CCOCC3)c3ccccc23)cc1S(=O)(=O)NCc1cccnc1,"inconclusive [inhibitor, single point]",–
O=C(NC(c1ccc(Cl)cc1)c1ccsc1)C1CCN(CCOc2ccc(Cl)cc2)CC1 (stereo not drawn),"inconclusive [inhibitor, single point]",–
CSc1ccccc1-n1nnnc1SCC(=O)NCc1cccs1,–,inconclusive: -30.5% [inhibitor]
CSc1ccccc1OCc1cc(C(=O)N2CCN(c3ccccc3)CC2C)no1 (stereo not drawn),"inconclusive [inhibitor, single point]",–
O=C(C[C@H]1C[C@@H]2c3cc(NC(=O)Nc4ccccc4F)ccc3O[C@@H]2[C@H](CO)O1)NCc1ccccn1,active: 16.4 µM,–
COC(C)(C)[C@@H](O)COc1c2ccoc2cc2oc(=O)ccc12,–,inactive: 4.34%
CCOc1ccc2[nH]c(=O)c(C(c3nnnn3C3CCCCC3)N3CCN(C)CC3)cc2c1 (stereo not drawn),–,inactive: -14.8%
CC(=O)Nc1ccc2nc(C)n(Cc3ccc(Cl)cc3)c(=O)c2c1,"inconclusive [inhibitor, single point]",–
O=C(NC(=S)Nc1ccc(Cc2ccncc2)cc1)c1ccccc1Cl,"inconclusive [inhibitor, single point]",–

SMILES,Potency,"activity change, negative = growth inhibition"
CN(C)CCN1CCN(C2CN(Cc3cn(Cc4ccccc4)nn3)S(=O)(=O)C2)CC1 (stereo not drawn),–,inactive: -5.66%
Cc1ccc(Cl)c(NC(=O)Nc2csc3c2CCCC3)c1,"inconclusive [inhibitor, single point]",–
c1ccc(-c2csc(N3CCCCCC3)n2)cc1,"inconclusive [inhibitor, single point]",–
COc1cc(C2CC(=O)Oc3ccc(C(C)(C)C)cc32)cc(OC)c1OC (stereo not drawn),–,inactive: -6.78%
CCOc1ccc(NC(=O)CSc2nnc(Cc3csc(C)n3)o2)cc1,–,inactive: 8.88%
O=C(COC(=O)Cn1nnc(-c2ccccc2)n1)Nc1cc(F)ccc1F,–,inactive: 5.29%
COCCN(CC(=O)Nc1cccc(C)c1C)C(=O)c1cc2ccccc2cc1OC,"inconclusive [inhibitor, single point]",–
COc1ccccc1OCCNc1cc(N2CCOCC2)ccc1[N+](=O)[O-],"inconclusive [inhibitor, partial curve]",–
CCOC(=O)CSC1=C(C#N)C(c2sccc2C)CC(=O)N1 (stereo not drawn),active: 3.55 µM,–
CCN(c1ccccc1)S(=O)(=O)c1cccc(C(=O)NCC(c2ccco2)N2CCCC2)c1 (stereo not drawn),"inconclusive [inhibitor, single point]",–
CCCCNC(=S)Nc1cccc2cnccc12,active: 23.1 µM,–
Cc1cc(Cl)ccc1Oc1nccc(N(C)C)c1C#N,active: 16.4 µM,–
CCOc1ccc(-c2nc(N)ncc2Oc2ccccc2Br)c(O)c1,"inconclusive [inhibitor, single point]",–
COc1cc2oc(=O)c(CC(=O)N3CCCCC3)c(C)c2cc1OC,–,inactive: 8.74%
Cc1ccc(NC(=S)N(Cc2ccccc2)C(C)C)cc1,"inconclusive [inhibitor, single point]",–
CCCn1nnc(NC(=O)c2ccc(-c3cc(Cl)ccc3Cl)o2)n1,"inconclusive [inhibitor, single point]",–
O=[N+]([O-])c1ccccc1S(=O)(=O)Nc1ccc2c(c1)OCCO2,"inconclusive [inhibitor, single point]",–
COc1ccc(/C=N/N(C)C2=NS(=O)(=O)c3ccccc32)cc1,–,inactive: -4.33%
COc1ccc(C(=O)/C=C/c2cn(CC(O)CN(CC(C)C)CC(C)C)c3ccccc23)cc1 (stereo not drawn),active: 16.4 µM,–
CCOC(=O)c1ccc(N2C(=O)CC(Nc3ccc(O)cc3)C2=O)cc1 (stereo not drawn),–,inactive: -15.6%
Cc1ccc(N(Cc2cc3ccccc3[nH]c2=O)C(=O)c2ccco2)c(C)c1,"inconclusive [inhibitor, single point]",–
Cc1ccccc1OCC(=O)N/N=C1\CCOc2c(C)cccc21,"inconclusive [inhibitor, partial curve]",–
COc1cccc(C(=O)Nc2ccc(-c3nc4ccccc4s3)cc2Cl)c1,"inconclusive [inhibitor, partial curve]",–
CCCCOc1ccc(C(=O)N/C(=C/C=C/c2ccccc2)C(=O)NCCCO)cc1,–,inactive: 7.61%
COc1cccc(-c2cccc(NC(=O)C3CCN(Cc4cnn(C)c4)CC3)c2)c1,–,inactive: 0.619%

SMILES,Potency,"activity change, negative = growth inhibition"
CN(C)/C=C/C(=O)c1nn(-c2ccc(F)cc2)ccc1=O,–,inactive: -2.76%
Cn1cc([N+](=O)[O-])c(C(=O)Nc2ccn(C34CC5CC(CC(C5)C3)C4)n2)n1,"inconclusive [inhibitor, single point]",–
O=C(NCc1ccc2c(c1)OCO2)c1c(O)c2cccc3c2n(c1=O)CCC3,–,inactive: -17%
Cc1ccccc1NC(=O)c1csc2c1CCCC2,active: 20.6 µM,–
CCN(CC(=O)Nc1ccc2c(c1)OCCO2)Cc1cc(=O)oc2c(C)c(C)ccc12,"inconclusive [inhibitor, single point]",–
O=C(CSc1ccccc1F)NCC(c1cccs1)N1CCOCC1 (stereo not drawn),"inconclusive [inhibitor, single point]",–
CC(=O)NNC(=S)NC(=O)c1cccc([N+](=O)[O-])c1,–,inactive: -29.8%
COc1ccc(Cn2nnnc2C(c2ccc3ncccc3c2)N2CCN(C3CCCCC3)CC2)cc1 (stereo not drawn),"inconclusive [inhibitor, single point]",–
Cc1ccc2c(CN3CCCCC3CCO)cc(=O)oc2c1 (stereo not drawn),–,inactive: 1.77%
Cc1cc(Cl)ccc1OCC(=O)Nc1nc(-c2cccs2)cs1,–,inactive: -19.4%
CCn1nc(C)c(CN2CCC(C(=O)Nc3cccc(-c4cccc(Cl)c4)c3)CC2)c1C,"inconclusive [inhibitor, single point]",–
CCCCS(=O)(=O)N1C2=NC(C(=O)OC)=C(C(=O)OC)[C@@H]3N(C)c4ccc(OC)cc4[C@]23C[C@H]1C(=O)OC,"inconclusive [inhibitor, single point]",–
CCN(C(=O)CN1C(=O)NC2(CCc3ccccc32)C1=O)C1CCCCC1 (stereo not drawn),–,inactive: -16.6%
Cc1nc2sc(C(c3ccco3)N3CCc4ccccc4C3)c(O)n2n1 (stereo not drawn),"inconclusive [inhibitor, single point]",–
O=C(CSc1ncccc1-c1nc2ccccc2[nH]1)N1CCc2ccccc21,"inconclusive [inhibitor, partial curve]",–
CCC(C)(C)NC(=O)C(c1ccccc1Cl)N(C(=O)CCC(=O)Nc1cc(C)on1)C1CC1 (stereo not drawn),–,inactive: -27.1%
COc1ccc(-c2csc3nc(-c4ccc(F)cc4)oc(=O)c23)cc1,–,inactive: -23.4%
Cn1nc(C(C)(C)C)cc1C(=O)NNC(=O)c1ccc(C(F)(F)F)cc1,"inconclusive [inhibitor, partial curve, poor fit]",–
CCCC(C)C(=O)Nc1nc(C)c(-c2csc(Nc3cc(Cl)ccc3C)n2)s1 (stereo not drawn),"inconclusive [inhibitor, single point]",–
O=C(COC(=O)c1cc(S(=O)(=O)N2CCOCC2)ccc1Cl)c1ccc[nH]1,–,inconclusive: -13.4% [inhibitor]
CCOC(=O)C1=CCN(S(=O)(=O)c2ccc(F)cc2)C1c1cccc(F)c1 (stereo not drawn),"inconclusive [inhibitor, single point]",–
Cc1c(Cl)cccc1NC(=S)N1CCCN(Cc2ccccc2F)C1,–,inactive: -23.9%
COc1ccc(C2=Nc3ccccc3N(C(=O)c3cnccn3)C2C(=O)NC2CCCC2)cc1 (stereo not drawn),–,inactive: -18.6%
